{"source": "PubChem BioAssay AID1345082", "about": "(National Center for Advancing Translational Sciences (NCATS), 2018)", "note": "Among all 94,000 compounds or so, about 4,000 (4.3%) were called active. This list was built around the results that the source calls inconclusive (neither active nor inactive); the mix of calls is not that of the screen. Calls follow the shape of the dose curve; as a rule, active = well fitted inhibition curve with a large enough effect; inconclusive = small, poorly fitted or top-dose-only effect; inactive = no such curve, though single readings can be large or run the other way. Where the call is inconclusive, the potency comes from a doubtful curve fit. Potency is read from the fitted curve at half-maximal effect; tags tell the direction and shape of the fitted curve.", "data": [{"test": "Cytotoxic Profiling in NIH 3T3 Cell Line of Diverse Libraries Using Quantitative High-Throughput Screening; also: nearly all actives have a fitted effect of over 55% in size", "conditions": "NIH 3T3 viability, CellTiter-Glo ATP luminescence, 48-72 h; series mostly up to 96.7 µM", "method_in_brief": "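NIH 3T3 cells at 400 cells/well received 23 nL of compound by pintool and were incubated 48 or 72 h at 37 °C. Viability was read as ATP-coupled CellTiter-Glo luminescence.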", "values": [{"molecule": "COCCO[C@H]1C(=O)N(C2CCN(C(=O)c3ccco3)CC2)[C@H]1c1ccncc1", "Potency": "inactive"}, {"molecule": "CCOc1ccccc1C(=O)N1CCN(C(=O)c2nnn3c2COC(c2ccc(Cl)cc2)C3)CC1", "note": "(centres undefined)", "Potency": "inconclusive: 44.7 µM [inhibitor, partial curve, poor fit]"}, {"molecule": "CCCCc1ccc(NC(=O)CN2C(=O)NC(c3ccccc3OCC)C3=C2COC3=O)cc1", "note": "(centres undefined)", "Potency": "active: 31.6 µM"}, {"molecule": "O=C(NCCc1ccc(Cl)cc1Cl)C1CNCCO1", "note": "(centres undefined)", "Potency": "inactive"}, {"molecule": "Cc1cccc(OCC(=O)N2CCC3(CC2)NC(=O)N(c2ccccc2Cl)N3)c1", "Potency": "inconclusive: 39.8 µM [inhibitor, partial curve, poor fit]"}, {"molecule": "COc1cccc(C(=O)N2CCC(N3C[C@H](O)C[C@H]3C(=O)NCc3ccccc3F)CC2)c1", "Potency": "inactive"}, {"molecule": "CNC(=O)[C@@H]1CN(C(=O)c2n[nH]c3ccccc23)C[C@H]1c1nc(C)no1", "Potency": "inactive"}, {"molecule": "CC1(C(=O)NCCCn2ccnc2)CCCc2cnc(Nc3ccccc3)nc21", "note": "(centres undefined)", "Potency": "inconclusive: 50.1 µM [inhibitor, partial curve, poor fit]"}, {"molecule": "O=C(C1CCC1)N1CCC(c2nc(C3CCOCC3)no2)CC1", "Potency": "inactive"}, {"molecule": "O=C(Nc1cc(-c2ccncc2)nn1-c1ccccc1)c1ccc(C(F)(F)F)cc1", "Potency": "active: 31.6 µM"}, {"molecule": "CC(C)C(=O)NC1CCN(c2ccc3nnc(-c4ccccc4)n3n2)CC1", "Potency": "inactive"}, {"molecule": "O=C(CNC(=O)c1ccc(-c2cccc(C(F)(F)F)c2)cc1)NCCc1ccc(Cl)cc1", "Potency": "inactive"}, {"molecule": "O=C(Nc1ccc(Cl)cc1Cl)c1ccc2cncn2c1", "Potency": "inconclusive: 44.7 µM [inhibitor, partial curve, poor fit]"}, {"molecule": "Cc1noc(C)c1-c1nccc2c(=O)cc(N3CCOCC3)oc12", "Potency": "active: 100 µM"}, {"molecule": "c1ccc2oc(-c3ccnc4ncnn34)cc2c1", "Potency": "inconclusive: 56.2 µM [inhibitor, partial curve, poor fit]"}, {"molecule": "Cc1nc2c(c(-c3ccc(O)cc3)n1)CN(Cc1ccc(OC(F)(F)F)cc1)CC2", "Potency": "inconclusive: 50.1 µM [inhibitor, partial curve, poor fit]"}, {"molecule": "COC(=O)c1cccc(NC(=S)N[C@H]2CO[C@H]3[C@@H]2OC[C@@H]3n2cc(CC3CCCCC3)nn2)c1", "Potency": "inconclusive: 50.1 µM [inhibitor, partial curve, poor fit]"}, {"molecule": "COc1ccc(-c2cc(C(=O)NCC(C)C)c3cnn(C)c3n2)cc1", "Potency": "inconclusive: 100 µM [inhibitor, single point]"}, {"molecule": "COc1ccc(N2Cc3c(NCCOc4ccccc4)ncnc3N(C)CC2=O)cc1", "Potency": "inconclusive: 44.7 µM [inhibitor, partial curve, poor fit]"}, {"molecule": "COCCn1c(=O)c(C(=O)N2CCN([S+](=O)([O-])c3c(C)noc3C)CC2)nc2cccnc21", "Potency": "inactive"}, {"molecule": "C=CCNC(=O)N[C@H]1CO[C@H]2[C@@H]1OC[C@@H]2Nc1nccc(-c2ccc(OC)cc2)n1", "Potency": "inconclusive: 50.1 µM [inhibitor, partial curve, poor fit]"}, {"molecule": "CCn1ccnc1CNC(=O)C1(N2C[C@@H](C)O[C@@H](C)C2)Cc2ccccc2C1", "Potency": "inconclusive: 79.4 µM [inhibitor, partial curve, poor fit]"}, {"molecule": "COCc1nc2nc(-c3ccccc3)c(-c3ccccc3OC)cc2n1C", "Potency": "inconclusive: 89.1 µM [inhibitor, partial curve]"}, {"molecule": "CCC(CC)C(=O)N1C[C@@H](CO)[C@@H]2Oc3ccc(Cl)cc3[C@@H]21", "Potency": "inconclusive: 10 µM [inhibitor, full curve, poor fit]"}, {"molecule": "CCOC(=O)[C@@H]1[C@@H](O)C(=O)N(Cc2ccccc2)C12CCN(C(=O)OCc1ccccc1)CC2", "Potency": "inconclusive: 50.1 µM [inhibitor, partial curve, poor fit]"}, {"molecule": "COc1ccc(CNC(=O)c2cc3c(s2)CCN(C(=O)c2ccccc2)C3)cc1OC", "Potency": "inconclusive: 11.2 µM [inhibitor, full curve, poor fit]"}, {"molecule": "O=C(NC1CCCc2c1[nH]c1c(Cl)cccc21)c1n[nH]c2c1CCC2", "note": "(centres undefined)", "Potency": "active: 28.2 µM"}, {"molecule": "O=C1Nc2ccccc2O[C@H]2C[C@@H]1N(Cc1ccccc1Cl)C2", "Potency": "inconclusive: 56.2 µM [inhibitor, full curve]"}, {"molecule": "O=C(CCc1c[nH]c2ccccc12)N1CCC(N2C(=O)C(O)C23CCCCC3)CC1", "note": "(centres undefined)", "Potency": "inactive"}, {"molecule": "COc1ccc(-c2cccc(C(=O)N3CCC(c4ccccc4)CC3)c2)nn1", "Potency": "inconclusive: 50.1 µM [inhibitor, partial curve, poor fit]"}, {"molecule": "Cc1nn(C)c(C)c1S(=O)(=O)N1CCCCCCn2c(nnc2-c2ccc(F)cc2)CC1", "Potency": "inactive"}, {"molecule": "CC1(C(=O)Nc2ccccc2F)COCc2cnc(Nc3ccccc3)nc21", "note": "(centres undefined)", "Potency": "inconclusive: 89.1 µM [inhibitor, partial curve]"}, {"molecule": "COc1cc(OC)cc(C(=O)N2CCCC(c3noc(COc4ccccc4)n3)C2)c1", "note": "(centres undefined)", "Potency": "inconclusive: 44.7 µM [inhibitor, partial curve, poor fit]"}, {"molecule": "CC(=O)N1CCC2(CC1)CN(C(=O)Cc1c(C)noc1C)Cc1ccccc1O2", "Potency": "inactive"}, {"molecule": "CN(Cc1ccc(-n2cccn2)cc1)CC1CCN(CCc2ccc(F)cc2)CC1", "Potency": "inconclusive: 44.7 µM [inhibitor, partial curve, poor fit]"}, {"molecule": "CCN1C(=O)CCc2cc(NC(=O)c3cccc(C#N)c3)ccc21", "Potency": "inconclusive: 39.8 µM [inhibitor, partial curve]"}, {"molecule": "Cc1nn(-c2ccccc2)c2c1C(C)N(C1CCCN([S+](C)(=O)[O-])C1)C2=O", "note": "(centres undefined)", "Potency": "inconclusive: 70.8 µM [inhibitor, single point]"}, {"molecule": "CCc1nc2c(c(-c3ccc(OC)cc3)n1)CCN(Cc1ccc(C(F)(F)F)cc1)CC2", "Potency": "inconclusive: 79.4 µM [inhibitor, single point]"}, {"molecule": "N[C@@H](Cc1cnc[nH]1)C(=O)N1CCC(c2cc(N3CCCC3)ncn2)CC1", "Potency": "inactive"}, {"molecule": "CCOC(=O)[C@@H]1CN(C(=O)C2CC2)[C@H]2c3cccc(C)c3O[C@@H]12", "Potency": "inconclusive: 50.1 µM [inhibitor, partial curve, poor fit]"}, {"molecule": "COCCN1C[C@H]2CN(C)c3ccccc3[C@@H]2N(C(=O)c2ccc(C)cc2)CCC1=O", "Potency": "inactive"}, {"molecule": "Cn1cc(-c2ccc(O)c(F)c2)c2nc(COc3ccc(Cl)cc3)cn2c1=O", "Potency": "active: 31.6 µM"}, {"molecule": "O=[S+]([O-])(c1cccc(C(F)(F)F)c1)N1CC(CNc2cccnc2)C2(CN(c3ccccc3)C2)C1", "note": "(centres undefined)", "Potency": "inconclusive: 31.6 µM [inhibitor, partial curve]"}, {"molecule": "COc1ccc(-c2ccccc2)cc1N1C(=O)[C@@H]2C[C@H]1CN2Cc1nc[nH]c1C", "Potency": "inactive"}, {"molecule": "O=C(NCCc1ccccc1)N1CC[C@@H]2COC(=O)N(Cc3ccccc3)[C@@H]2C1", "Potency": "inconclusive: 50.1 µM [inhibitor, partial curve, poor fit]"}, {"molecule": "Cc1ccc(C(=O)N2C(C(=O)N3CCOCC3)COC23CCN(C(=O)c2ccccc2C)CC3)cc1", "note": "(centres undefined)", "Potency": "inactive"}, {"molecule": "CC1=C(C(=O)NC23CC4CC(CC(C4)C2)C3)C(c2cccnc2)NC(=O)N1", "note": "(centres undefined)", "Potency": "inactive"}, {"molecule": "CC(C)(C)c1ccc(C(=O)Nc2nc3c(s2)C[C@@H]2[C@](C)(CO)[C@H](O)CC[C@@]2(C)[C@@H]3CC(=O)NC2CC2)cc1", "Potency": "active: 44.7 µM"}, {"molecule": "Nc1ccc(CN2CCCC3(Cc4ccccc4CNC3=O)C2)cc1", "note": "(centres undefined)", "Potency": "inactive"}, {"molecule": "Cc1ccc(-c2ccc3nnc(CNC(=O)c4c(F)cccc4F)n3n2)cc1", "Potency": "inactive"}, {"molecule": "COc1ccc(CN2C[C@H](O)C[C@H]2c2nc(-c3ccc(C)c(F)c3)no2)cc1", "Potency": "inconclusive: 89.1 µM [inhibitor, partial curve]"}, {"molecule": "CN1C[C@@H](NS(=O)(=O)c2ccc(Cl)cc2)C[C@H]1c1nc(-c2ccc(F)cc2)no1", "Potency": "inconclusive: 79.4 µM [inhibitor, single point]"}, {"molecule": "CCCN1CCC2(CCN(C(=O)c3cccc(Cl)c3)CC2)Oc2ccccc21", "Potency": "inconclusive: 50.1 µM [inhibitor, partial curve, poor fit]"}, {"molecule": "CCCN1C(=O)CCc2cc(NC(=O)Cc3c(F)cccc3Cl)ccc21", "Potency": "inconclusive: 44.7 µM [inhibitor, partial curve, poor fit]"}, {"molecule": "NC(=O)[C@H](Cc1ccc(O)cc1)NC(=O)C1=C[C@@H](NC(=O)Nc2ccc(OC(F)(F)F)cc2)[C@@H](O)[C@H](O)C1", "Potency": "inactive"}, {"molecule": "Cc1ccc(CN2CCC3(CC2)Cc2ccccc2CNC3=O)cc1C", "Potency": "inconclusive: 70.8 µM [inhibitor, single point]"}, {"molecule": "O=C(NCCc1ccccc1)c1ccc2nnc(-c3cccnc3)n2c1", "Potency": "inactive"}, {"molecule": "CC(C)(Oc1nn(CC2CC2)c2ccc(CN3CCCC3)cc12)C(=O)NCC(F)(F)F", "Potency": "inconclusive: 50.1 µM [inhibitor, partial curve, poor fit]"}, {"molecule": "O=C(NC1CCN(c2cc(-c3ccccc3)[nH]n2)CC1)c1ccc2ncccc2c1", "Potency": "inconclusive: 39.8 µM [inhibitor, partial curve, poor fit]"}, {"molecule": "Cc1noc(C)c1-c1cc2cc(CO)oc2c(NCCN2CCOCC2)n1", "Potency": "inconclusive: 28.2 µM [inhibitor, full curve]"}, {"molecule": "O=C1N(C2CCCCC2)C[C@H]2CN(S(=O)(=O)c3ccc(F)cc3)CCN12", "Potency": "active: 35.5 µM"}, {"molecule": "Clc1cc(Cl)cc(NC2CNC2)c1", "Potency": "active: 56.2 µM"}, {"molecule": "CCOC(=O)c1ccc(N2CCN(CC3=CC(C)(C)Oc4ccc(OC)cc43)CC2)cc1", "Potency": "inconclusive: 28.2 µM [inhibitor, partial curve, poor fit]"}, {"molecule": "COc1ccc(-c2ccnc(N[C@H]3CO[C@H]4[C@@H]3OC[C@@H]4NC(=O)Nc3cccc(C(F)(F)F)c3)n2)cc1", "Potency": "active: 39.8 µM"}]}]}
